Measurements published in PubChem BioAssay AID493208 (National Center for Advancing Translational Sciences (NCATS), 2011).
The whole screen tested about 44,000 compounds, of which about 340 (0.77%) were called active. This list was built around the results that the source calls inconclusive (neither active nor inactive); the mix of calls is not that of the screen. Calls follow the shape of the dose curve; as a rule, active = well fitted inhibition curve with a large enough effect; inconclusive = small, poorly fitted or top-dose-only effect; inactive = flat fitted curve, though single readings scatter. No potency is given beside an inconclusive call; the fits are too rough.
Potency is read from the fitted curve at half-maximal effect; tags tell the direction and shape of the fitted curve.

Assay: Acumen qHTS Assay for Inhibitors of the mTORC1 Signaling Pathway in MEF (Tsc2-/-, p53-/-) Cells: Sytravon; also: nearly all actives have a fitted effect of over 50% in size;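 as to activity change, negative = inhibition: plate controls were DMSO for no effect and rapamycin for full effect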
Settings: phospho-rpS6 immunofluorescence/PI, 24 h; series mostly up to 38.3 µM; activity change, negative = inhibition: at the top concentration
Method in brief: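 Readout is phospho-S6 Alexa 488 signal normalized to PI per well, reported as % active cells with thresholds set from rapamycin (7.5 nM) and DMSO controls. Cells: Tsc2-/-, p53-/- MEFs, 24 hrs compound at 37 C; PI cell number serves as viability.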
In the case of `CCOc1ccccc1NC(=O)CCCc1nc(-c2ccccc2Cl)no1`, the “activity change, negative = inhibition” value is reported as inactive: -9.06%.
In the case of `Cc1ccc2c(CNCCc3ccc(Cl)cc3)c(C(=O)O)n(Cc3ccc(F)cc3)c2c1`, the Potency is reported as inconclusive [falling, single point].
With `O=c1c2sc3ccccc3c2n(Cc2ccccc2)c(=O)n1Cc1ccccc1` the Potency was inconclusive [falling, full curve, poor fit].
In the case of `COc1ccccc1C(=O)Nc1nc2ccc(S(=O)(=O)N3CCCC3)cc2s1`, the Potency is reported as inconclusive [falling, single point].
For `CC(C)c1ccc(CNCCSc2nnnn2C)cc1`, the Potency was inconclusive [falling, partial curve, poor fit].
With `Cc1nnc(NC(=O)c2nc(S(=O)(=O)Cc3ccccc3)ncc2Cl)s1` the Potency was inconclusive [falling, single point].
For `Cc1ccc2nc(-c3ccccn3)c(Nc3ccc(F)cc3)n2c1`, the Potency was inconclusive [falling, single point].
In the case of `CCOC(=O)c1cc(-c2ccccc2)n(CCCC(=O)Nc2ccc(CC)cc2)c1C`, the Potency is reported as inconclusive [falling, partial curve, poor fit].
For `Cc1cc(C)c2c(=O)cc(CSCC(=O)Nc3nnc(C)s3)[nH]c2c1`, the Potency was inconclusive [falling, single point].
With `Cc1ccc(NC(=O)c2cc(S(=O)(=O)NCCC3=CCCCC3)ccc2F)cc1F` the Potency was inconclusive [falling, single point].
For `CC(C)CCNC(=O)c1cccc(Nc2nc3ccccc3n3nnnc23)c1`, the Potency was inconclusive [falling, partial curve, poor fit].
With `Cc1cc(NC(=O)c2ccc(Br)o2)cc(-c2nc3ccccc3o2)c1O` the Potency was inconclusive [falling, partial curve, poor fit].
With `NS(=O)(=O)c1ccc(CCNC(=O)C2COc3ccccc3C2)cc1` (stereo not given) the Potency was inconclusive [falling, single point].
In the case of `Cc1ccc(Cn2c(=O)c3cccnc3n(CC(=O)Nc3cccc(C(F)(F)F)c3)c2=O)cc1`, the “activity change, negative = inhibition” value is reported as inactive: -1.22%.
For `Cc1ccc(-n2ncc3c(N4CCCCCC4)ncnc32)cc1`, the “activity change, negative = inhibition” value was inactive: 15.3%.
With `Cc1cc(C)cc(Oc2nc3c(C)cccn3c(=O)c2/C=C(\C#N)c2nc3ccccc3[nH]2)c1` the “activity change, negative = inhibition” value was inactive: -18%.
With `COCCNC(=O)c1cnn(-c2ccc(C)cc2C)c1C1CCN(C(=O)OC(C)(C)C)CC1` the Potency was inconclusive [falling, partial curve, poor fit].
With `Cc1c(Cl)ccc2sc(NC(=O)c3ccc(S(=O)(=O)N4CCCc5ccccc54)cc3)nc12` the Potency was active: 14.7 µM.
For `COc1cc(NC(=O)c2noc3c2CSc2ccccc2-3)cc(OC)c1OC`, the “activity change, negative = inhibition” value was inactive: 0.0529%.
In the case of `CCn1c(=O)n(CC)c2cc(N3CCCCC3)c(NC(=O)Nc3cc(C)cc(C)c3)cc21`, the “activity change, negative = inhibition” value is reported as inactive: -11.6%.
In the case of `CCOC(=O)c1c(N)n(-c2cccc(OC)c2)c2nc3ccccc3nc12`, the “activity change, negative = inhibition” value is reported as inactive: -2.52%.
With `O=C1c2[nH]nc(-c3ccccc3O)c2C(c2ccc(Cl)cc2)N1Cc1ccco1` (stereo not given) the Potency was inconclusive [falling, partial curve, poor fit].
With `O=C(C1CCCN(S(=O)(=O)c2ccc(Br)s2)C1)N1CCN(c2ccccc2)CC1` (stereo not given) the Potency was inconclusive [falling, full curve, poor fit].
With `CC(=O)N1CCCc2cc(S(=O)(=O)N3CCCC(C(=O)Nc4cc(Cl)ccc4C)C3)ccc21` (stereo not given) the Potency was inconclusive [falling, partial curve, poor fit].
With `CCOc1ccccc1NS(=O)(=O)c1ccc(-c2cnc(C3CC3)o2)cc1` the Potency was inconclusive [falling, partial curve, poor fit].
For `COc1ccc(NC(=O)C2CCC(CNS(=O)(=O)c3ccc(Br)s3)CC2)cc1OC` (stereo not given), the Potency was inconclusive [falling, single point].
For `O=C(Nc1ccccc1)c1ccc(Br)c(S(=O)(=O)N2CCCCC2)c1`, the “activity change, negative = inhibition” value was inactive: -5.31%.
With `CCOc1cc(C2c3c(-c4ccc(Br)cc4)n[nH]c3C(=O)N2c2ccc(Cl)cc2)ccc1O` (stereo not given) the Potency was inconclusive [falling, single point].
For `O=C(CSc1nc2ccccc2nc1Cc1ccc(Cl)cc1)NCCc1ccccc1`, the Potency was inconclusive [falling, partial curve, poor fit].
With `CCOc1ccccc1CC1C(=O)Nc2ccc(Br)cc21` (stereo not given) the Potency was inconclusive [falling, single point].
For `Cc1cccc(-c2nc(Cn3c(=O)cc(-c4ccccc4)c4c(C)nn(C)c43)c(C)o2)c1`, the Potency was inconclusive [falling, single point].
In the case of `CCN(c1ccc(OC)cc1)S(=O)(=O)c1ccc2[nH]c(=O)ccc2c1`, the Potency is reported as inconclusive [falling, partial curve, poor fit].
In the case of `O=C(NCc1ccc(Cl)cc1)C1CCCN(c2nc3ccccc3n3cccc23)C1` (stereo not given), the Potency is reported as inconclusive [falling, single point].
With `Cc1cc(N2CCCCC2)nc2ccc(NC(=O)/C=C/c3ccccc3Cl)cc12` the “activity change, negative = inhibition” value was inactive: -15.5%.
In the case of `COC(=O)c1c(-c2ccc(Cl)cc2)noc1N1CCN(c2cccc(C(F)(F)F)c2)CC1`, the Potency is reported as inconclusive [falling, single point].
In the case of `CC(=O)c1cccc(NC(c2ccc(F)cc2)c2nnc(-c3ccccc3)o2)c1` (stereo not given), the Potency is reported as inconclusive [falling, single point].
With `O=c1c2c(-c3ccc(Cl)cc3)ccnc2[nH]n1-c1ccccc1` the “activity change, negative = inhibition” value was inactive: 3.79%.
In the case of `CCC(C(=O)Nc1cc(-c2nc3cccnc3s2)ccc1C)c1ccccc1` (stereo not given), the Potency is reported as inconclusive [falling, single point].
With `CCOc1ccc(CNC(=O)c2ccc(Sc3ccc(Cl)cc3)c(NC(C)=O)c2)cc1OC` the “activity change, negative = inhibition” value was inactive: 2.79%.
In the case of `CCOc1ccc(OCC)c(Nc2nc3ccc(Cl)cc3n3cnnc23)c1`, the “activity change, negative = inhibition” value is reported as inactive: 0.323%.
With `CCOc1ccc(-c2noc(CSc3nnc(Cc4ccccc4)n3-c3cccc(C)c3)n2)cc1` the “activity change, negative = inhibition” value was inactive: -21.9%.
In the case of `CCc1cccc(NC(=O)c2ccc(CNS(=O)(=O)c3ccc4c(c3)C(C)(C)C(=O)N4C)cc2)c1`, the Potency is reported as inconclusive [falling, single point].
With `COC(=O)c1ccccc1-n1cc2c(c1-c1cccc(C)c1)c(=O)n(C)c(=O)n2C` the Potency was inconclusive [falling, single point].
With `CCc1ccccc1NC(=O)C(=O)NCCc1sc(-c2cccc(F)c2)nc1C` the “activity change, negative = inhibition” value was inactive: 1.46%.
In the case of `Cc1ccc(OCC(=O)Nc2ccc(S(=O)(=O)N(Cc3ccccc3)c3ccccc3)cc2)cc1`, the Potency is reported as inconclusive [falling, single point].
For `CC(C)c1ccc(NC(=O)C2CCCN(S(=O)(=O)c3ccc4[nH]c(=O)ccc4c3)C2)cc1` (stereo not given), the Potency was inconclusive [falling, single point].
With `Cn1c(=O)oc2cc(S(=O)(=O)N3CCCC(C(=O)N4CCN(c5cccc(Cl)c5)CC4)C3)ccc21` (stereo not given) the “activity change, negative = inhibition” value was inactive: -0.727%.
In the case of `O=C(CC1(O)C(=O)N(Cc2ccccc2)c2ccc(Br)cc21)c1ccccc1` (stereo not given), the Potency is reported as inconclusive [falling, single point].
In the case of `Cc1cccc(N2CCN(c3ncnc4onc(C)c34)CC2C)c1` (stereo not given), the “activity change, negative = inhibition” value is reported as inactive: -1.78%.
In the case of `CCc1cccc(C)c1NS(=O)(=O)c1ccc(-c2cc(C)no2)s1`, the Potency is reported as inconclusive [falling, partial curve, poor fit].
In the case of `COc1cc(Cl)c(NS(=O)(=O)c2ccc(-c3coc(C)n3)cc2)c(OC)c1`, the Potency is reported as inconclusive [falling, partial curve].
In the case of `O=C(Cn1c(=O)n(-c2ccccc2)c(=O)c2sc3ccccc3c21)NC1CCCC1`, the Potency is reported as inconclusive [falling, partial curve, poor fit].
With `Cc1ccc(C)c(Nc2nn3c(=O)c4ccc(C(=O)NCc5cccs5)cc4nc3s2)c1` the Potency was inconclusive [falling, single point].
In the case of `CCOc1ccc(-c2nonc2NC(=O)c2oc3cc(Br)ccc3c2C)cc1`, the “activity change, negative = inhibition” value is reported as inactive: -12.4%.
In the case of `COc1cc(CNCCSc2nnnn2C)ccc1OCc1c(F)cccc1Cl`, the Potency is reported as inconclusive [falling, single point].
With `COc1cc(C2CC(=O)Nc3cc4c(cc32)OCCO4)cc(OC)c1O` (stereo not given) the Potency was inconclusive [falling, single point].
In the case of `O=C(CCS(=O)(=O)c1nc(-c2cccs2)cc(C(F)(F)F)n1)Nc1cccc(O)c1`, the Potency is reported as active: 13.1 µM.
In the case of `CCOc1ccccc1N(CC)C(=O)c1cc2ccc3cccnc3c2[nH]1`, the “activity change, negative = inhibition” value is reported as inactive: -0.703%.
In the case of `CCCc1cc(=O)oc2cc(C)c3c(-c4ccccc4)c(C)oc3c12`, the Potency is reported as inconclusive [falling, single point].
With `CCOc1ccccc1NC(=O)CN1C(=O)C(=O)c2ccccc21` the Potency was active: 2.61 µM.
With `O=C(O)C1=CC(c2ccc(Br)cc2)n2ncnc2N1` (stereo not given) the Potency was inconclusive [falling, partial curve, poor fit].
For `Cc1ccc(C)c(CN2C(=O)C(O)(c3c[nH]c4ccccc34)c3ccccc32)c1` (stereo not given), the Potency was inconclusive [falling, single point].
In the case of `CC(C)c1nnc(NC(=O)c2nc(S(=O)(=O)Cc3ccccc3)ncc2Cl)s1`, the Potency is reported as inconclusive [falling, single point].
With `COc1ccc(Cl)cc1NC(=O)CSc1cn(CC(=O)N2CCCC2)c2ccccc12` the Potency was inconclusive [falling, single point].
In the case of `CCOc1cc(C2c3c(oc4ccccc4c3=O)C(=O)N2Cc2ccccc2Cl)ccc1O` (stereo not given), the “activity change, negative = inhibition” value is reported as inactive: -5.9%.
